According to PubChem BioAssay AID360 (National Center for Advancing Translational Sciences (NCATS), 2006):
Screen size: about 48,000 compounds; about 550 (1.1%) were called active. Not shown: some 4% with an inconclusive outcome. No stated cut-off is given here; in the data, active means potency below about 15 µM; inconclusive means mostly about 16 µM to 33 µM; inactive means weaker than that. Some of the results follow.

What follows are compounds tested against Lysosomal acid glucosylceramidase (Homo sapiens) (UniProt P04062) (assay: Glucocerebrosidase). Conditions: purified enzyme, resorufin glucoside fluorescence (screen aimed at inhibitors), 20 min; series mostly up to 77 µM.
UniProt P04062, sequence (P04062 whole entry, looked up): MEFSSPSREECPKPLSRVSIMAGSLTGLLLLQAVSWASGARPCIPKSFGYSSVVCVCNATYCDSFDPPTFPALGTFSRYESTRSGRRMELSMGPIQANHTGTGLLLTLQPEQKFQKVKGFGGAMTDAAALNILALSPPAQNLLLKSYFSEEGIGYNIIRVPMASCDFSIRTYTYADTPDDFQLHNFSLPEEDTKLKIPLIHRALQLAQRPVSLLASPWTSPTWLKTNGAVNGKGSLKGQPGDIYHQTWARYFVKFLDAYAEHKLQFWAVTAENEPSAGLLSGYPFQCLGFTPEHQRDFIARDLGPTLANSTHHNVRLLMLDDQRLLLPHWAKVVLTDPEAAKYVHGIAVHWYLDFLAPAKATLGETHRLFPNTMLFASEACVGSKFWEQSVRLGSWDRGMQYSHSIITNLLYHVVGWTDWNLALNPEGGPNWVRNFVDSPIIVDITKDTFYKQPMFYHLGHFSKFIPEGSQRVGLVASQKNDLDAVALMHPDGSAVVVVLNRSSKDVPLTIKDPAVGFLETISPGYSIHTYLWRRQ
Outline: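 Wild-type enzyme at 0.2 nM final in 50mM citric acid/KH2PO4, 10mM sodium taurocholate, 0.01% tween-20, pH 5.9, with resorufin beta-D-glucopyranoside at 30 uM final. Compounds titrated, 20 min at RT, red fluorescence read; AC50 from titration.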
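Further: the screen sought inhibitors.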
Potency means the concentration at half of the fitted maximal effect.

Potency, inactive:
COc1ccc(N2CCN(C(c3cccs3)C(C)NC(=O)c3ccco3)CC2)cc1 (configuration not stated) > 76.9 µM
Cc1cc(OC(=O)N2CCCCC2)cc(C)c1Cl > 76.9 µM
O=C(CCNS(=O)(=O)c1cccc2nsnc12)Nc1ccc2c(c1)OCCO2 > 76.9 µM
O=C(Nc1ccc2c(c1)CCC2)C1COc2ccccc2O1 (configuration not stated) > 76.9 µM
CN1C(=S)SC(/[N+]([O-])=C\c2cccs2)C1(C)C (configuration not stated) > 76.9 µM
COC(=O)NCCOc1cc(C)ccc1C > 76.9 µM
Cc1[nH]c2ccccc2c1CC(=O)O > 76.9 µM
O=C1CC(c2cccc(F)c2)C2=C(CCCC2=O)N1 (configuration not stated) > 76.9 µM
O=C(COc1ccc(S(=O)(=O)N2CCCC2)cc1)NCCC1=CCCCC1 > 76.9 µM
O=c1nc(-c2ccccc2)c2cc(Cl)ccc2[nH]1 > 76.9 µM
O=C(CSc1nc2ccccc2c(=O)n1Cc1ccco1)N1CCCCCC1 > 76.9 µM
CC(C)Oc1cc2oc(=O)c3c(c2cc1Cl)CCC3 > 76.9 µM
O=C(c1ccco1)[C@@H]1[C@@H]2C(=O)N(c3ccccc3)C(=O)[C@@H]2C2c3ccccc3C=CN21 (some centres not stated) > 76.9 µM
CCCCCc1c(C)nc(Nc2nc(C)c3cc(OC)ccc3n2)[nH]c1=O > 76.9 µM
CCOc1ccc(N2C(=O)c3cccnc3C2=O)cc1 > 76.9 µM
Cc1c(/C(O)=C2/C(=O)C(=O)N(CCN3CCOCC3)C2c2ccco2)cnn1-c1ccccc1 (configuration not stated) > 76.9 µM
Cc1csc(N(C)C(=O)CSc2nnc(COc3cccc4ccccc34)o2)n1
COc1ccc(S(=O)(=O)N(C)CC(=O)N2CCC(C)CC2)cc1Cl > 76.9 µM
COc1ccc(S(=O)(=O)N(C)C2CCS(=O)(=O)C2)cc1OC (configuration not stated) > 76.9 µM
COc1ccc2c(c1)N(C(=O)CSc1n[nH]c(C)n1)C(C)(C)C=C2C > 76.9 µM
CCOC(=O)CSc1nnc(CNC(=O)c2cccs2)n1-c1cc(C)ccc1C > 76.9 µM
CCCn1nnc(NC(=O)COc2cc(C)ccc2C(C)C)n1 > 76.9 µM
CCOC(=O)c1c(C)c(C(=O)NCCN2CCOCC2)c(C)n1CC > 76.9 µM
COc1cc2c(C(=O)N3CCCc4ccccc43)cn(C)c(=O)c2cc1OC > 76.9 µM
Cc1nc(SCC(=O)Nc2c(C)n(C)n(-c3ccccc3)c2=O)n[nH]1 > 76.9 µM
O=C(NCc1ccccc1)c1ccc(F)c(S(=O)(=O)N2CCOCC2)c1 > 76.9 µM
CCOC(=O)CC(NS(=O)(=O)c1ccc(NC(C)=O)cc1)c1ccc(OCC)cc1 (configuration not stated) > 76.9 µM
CCOc1ccc(Cl)cc1S(=O)(=O)n1cnc2ccccc21 > 76.9 µM
COc1cc2c(cc1OC)CN(Cc1nc3ccsc3c(=O)[nH]1)CC2 > 76.9 µM
O=c1cc(NCc2ccccc2)c2ccccc2o1 > 76.9 µM
O=C(NCCc1ccccn1)c1ccc(COc2ccccc2)o1
Cc1ccc(/C=C/S(=O)(=O)N2CCC(C(=O)O)CC2)cc1 > 76.9 µM
Cc1nc(NC(=O)CSc2nc3cccnc3n2C2CCCCC2)sc1C > 76.9 µM
COC(=O)c1[nH]c2cccc(OC)c2c1NC(=O)CN1CCOCC1 > 76.9 µM
COc1ccc(N(C(=O)CNC(=O)c2ccco2)C(C(=O)NC2CCCCC2)c2ccco2)cc1 (configuration not stated) > 76.9 µM
O=C(NCc1ccco1)c1cc2n(n1)C(C(F)(F)F)CC(c1ccc(F)cc1)N2 (configuration not stated) > 76.9 µM
Cc1cc(NS(=O)(=O)c2ccc(-c3ccccc3)cc2)no1 > 76.9 µM
c1ccc2cc3[nH]c(CN4CCOCC4)nc3cc2c1 > 76.9 µM
CCC1SC2=NCN(c3ccccc3)CN2C1=O (configuration not stated) > 76.9 µM
Cc1cc(C(=O)OCC(=O)NCCc2ccccc2)c(C)o1 > 76.9 µM
CC(C)(C)C(=O)CN1C(=O)C2(OCCO2)c2ccccc21 > 76.9 µM
Cc1cc(SCc2ccccc2)nc(=O)[nH]1 > 76.9 µM
NC(=O)CSc1nnc(-c2ccncc2)n1CCc1ccccc1 > 76.9 µM
S=c1[nH]nc(Cc2ccccc2)n1Cc1ccco1 > 76.9 µM
O=S(=O)(NCc1ccccc1Br)c1cccs1 > 76.9 µM
CCOc1cc(NC(=O)c2ccco2)c(OCC)cc1NC(=O)CCc1ccc(OC)cc1 > 76.9 µM
c1ccc2c(c1)oc1c(NCCCn3ccnc3)ncnc12 > 76.9 µM
CCCS(=O)(=O)N1CCN(C(=O)CCC2CCCC2)CC1 > 76.9 µM
CCCC(C(=O)NC1CCCCC1)N(CC1CCCO1)C(=O)CNS(=O)(=O)c1ccc(F)cc1 (configuration not stated) > 76.9 µM
Nc1nc(C2C(=O)CCCC2=O)cs1 > 76.9 µM
Cc1nn(-c2ccccc2)c(C)c1C(=O)OCC(=O)NCc1ccco1 > 76.9 µM
COc1ccc(C)cc1S(=O)(=O)N1CCN(c2cccc(C(F)(F)F)c2)CC1 > 76.9 µM
Cc1c(Cl)cccc1Nc1nc(N)nc(CSc2ncccn2)n1 > 76.9 µM
Cc1cccc(NC(=O)CSc2nnc(-c3ccc(S(=O)(=O)N4CCOCC4)cc3)n2C)c1 > 76.9 µM
COCCCN1C(=O)C(O)=C(C(C)=O)C1c1cccc(F)c1 (configuration not stated) > 76.9 µM
O=C(Cn1cnc2c(nnn2Cc2ccccc2F)c1=O)OCc1ccccc1 > 76.9 µM
CCCn1nnnc1SCC(=O)N(C(C)C)C(C)C > 76.9 µM
Cc1nc(Nc2ccc(F)cc2)[nH]c(=O)c1CCC(C)C
CCN(CC)C(=O)COc1ccc2oc(C)c(C(=O)OC)c2c1 > 76.9 µM
CCCCN1C(=O)c2ccccc2C1C(=O)NC1CCCC1 (configuration not stated) > 76.9 µM
Cc1cc(NC(=O)COC(=O)c2cccc(S(=O)(=O)N3CCOCC3)c2)no1 > 76.9 µM
O=C(O)c1ccccc1S(=O)(=O)NCC(O)COC1CCCCC1 (configuration not stated) > 76.9 µM
CCCCOc1ccc(C(=O)CCNC(C(=O)O)C(C)CC)cc1 (configuration not stated) > 76.9 µM
CC(=O)Nc1ccc(S(=O)(=O)NCCSc2ccccn2)cc1 > 76.9 µM
O=C(c1coc2ccccc2c1=O)N1CCN(c2cccc(C(F)(F)F)c2)CC1 > 76.9 µM
CCOC(=O)C1=C(c2ccccc2)OC(N)=C(C#N)C1C(C)C (configuration not stated) > 76.9 µM
CC(=O)n1nc2nc(C)cc(C)c2c1N > 76.9 µM
COc1ccccc1N1CCN(c2nc3ccccc3n3nnnc23)CC1 > 76.9 µM
CNc1oc(Cc2cccc3ccccc23)nc1C#N > 76.9 µM
O=C(NCCN1C(=O)CSC1=O)C1CC(=O)N(c2ccccc2)C1 (configuration not stated) > 76.9 µM
Cc1nc2c(C(=O)NCc3ccc4c(c3)OCO4)c[nH]n2c(=O)c1Cc1ccccc1F > 76.9 µM
O=C(Oc1nsnc1N1CCOCC1)N(c1ccccc1)c1ccccc1 > 76.9 µM
Cc1cccc2cc(CN(CCN3CCOCC3)C(=O)Nc3ccccc3F)c(=O)[nH]c12 > 76.9 µM
COCCn1c(=S)[nH]c2cc(C(=O)NCC3CCCO3)ccc2c1=O (configuration not stated) > 76.9 µM
COc1ccc(CNC(=O)C(C)OC(=O)c2cccn2C)cc1 (configuration not stated) > 76.9 µM
Cc1ccccc1-n1c(SC(C)C(N)=O)nnc1-c1cccnc1 (configuration not stated) > 76.9 µM
O=C(OCc1ccc(F)cc1Cl)c1ccccn1 > 76.9 µM
Cn1c2c(c(=O)n(C)c1=O)C(NC(=O)c1ccco1)(C(F)(F)F)C(=O)N2 (configuration not stated) > 76.9 µM
COc1ccccc1NC(=O)C1C2C=CC(O2)C1C(=O)O (configuration not stated) > 76.9 µM
CCOC(=O)N1CCN(C(=O)c2ccc3c(=O)n(Cc4ccc(Cl)cc4)c(=S)[nH]c3c2)CC1 > 76.9 µM
COc1cccc2cc(C(=O)NC(C)C3CCCO3)c(=O)oc12 (configuration not stated) > 76.9 µM
O=C(NCc1cccs1)C1CC(=O)N(c2ccc(F)cc2)C1 (configuration not stated) > 76.9 µM
O=C1CCCN1CN(C(=O)c1ccc2c(c1)OCO2)c1ccc(F)cc1 > 76.9 µM
Cn1cc(SCC(=O)Nc2nc3ccccc3s2)c2ccccc21 > 76.9 µM
O=C(CCn1c(=O)[nH]c2ccsc2c1=O)N1CCN(Cc2ccc3c(c2)OCO3)CC1 > 76.9 µM
O=C(COC(=O)C1(c2ccc(F)cc2)CCCC1)N1CCOCC1 > 76.9 µM
O=C(Cn1nc(C(=O)O)c2ccccc2c1=O)NCC1CCCO1 (configuration not stated) > 76.9 µM
CCn1c(SCC(=O)O)nnc1-c1ccccc1 > 76.9 µM
CN1CCN(C(=O)c2cc3c(ccc4ccccc43)oc2=O)CC1 > 76.9 µM
CCCOC(=O)C1=C(C)NC2=C(C(=O)CCC2)C1c1cccs1 (configuration not stated) > 76.9 µM
CCOC(=O)N1CCC(Nc2nc3ccccc3n3nnnc23)CC1 > 76.9 µM
CC(C)CCn1c(SCCN2CCOCC2)nc2c1c(=O)[nH]c(=O)n2C > 76.9 µM
